# T1: IL-22 RA1 ECD (Homo sapiens (Human), UniProt Q8N6P7 16-228)
# T1 construct: also called IL22-RA1 extracellular domain; IL-22R1
# T1 sequence: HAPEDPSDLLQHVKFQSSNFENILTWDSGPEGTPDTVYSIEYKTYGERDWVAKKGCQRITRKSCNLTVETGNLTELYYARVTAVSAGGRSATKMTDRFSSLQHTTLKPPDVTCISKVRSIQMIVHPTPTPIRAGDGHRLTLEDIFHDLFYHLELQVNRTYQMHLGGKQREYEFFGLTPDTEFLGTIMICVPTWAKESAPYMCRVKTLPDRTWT
# B1: IL-22 Fc fusion protein Reference Standard Batch (Fc fusion)
# chain: APISSHCRLDKSNFQQPYITNRTFMLAKEASLADNNTDVRLIGEKLFHGVSMSERCYLMKQVLNFTLEEVLFPQSDRFQPYMQEVVPFLARLSNRLSTCHIEGDDLHIQRNVQKLKDTVKKLGESGEIKAIGELDLLFMSLRNACIRV[human IgG4 Fc with S228P N297G (EU numbers) omitted here]
# modifications: N-glycans at Asn21, Asn35, Asn64 and Asn143 of the IL-22 part; 7.8 mol NANA per mol fusion protein (Table 14)
# B2: IL-22 Fc fusion protein process control sample (Fc fusion)
# chain: B1 chain
# modifications: N-glycans on the IL-22 part; Reference Standard Batch taken through the deglycosylation incubation and purification without PNGase F; glycan composition changed by the treatment
# notes: Prepared from m1; held more HMW and less LMW forms than m1 by SE-UHPLC
# B3: Deglycosylated IL-22 Fc fusion protein Clinical Batch 6 (Fc fusion)
# chain: B1 chain
# modifications: all N-glycans removed with PNGase F (glycosylated Asn becomes Asp)
# notes: also called deglycosylated Clinical Batch 6
# Legend:
# [1] = target: T1, IL-22 RA1 ECD; test: potency binding assay (OD against concentration) on plate-coated IL-22 RA1 ECD; upper panel, legend box
# Description: (§1) The IL-22 Fc fusion protein potency assay measures the ability of IL-22 Fc fusion protein to bind to the IL-22 RA1 ECD. In the assay, varying concentrations of IL-22 Fc fusion protein Reference Standard Batch, control, and samples are added to a 96-well plate coated with IL-22 RA1 ECD. Bound IL-22 Fc fusion protein is detected with goat anti-human IgG-horseradish peroxidase (HRP) antibody and a tetramethylbenzidine substrate solution. The results, expressed in optical density (OD) units, are plotted against IL-22 Fc fusion protein concentrations, and a parallel curve program is used to calculate the measured potency of IL-22 Fc fusion protein sample(s) relative to the Reference Standard Batch.
# (§2) To investigate the role of the underlying glycan structure on binding activity, the same Clinical Batches as above were treated with PNGase F enzyme to remove all N-glycans and analyzed in the potency assay. The potency of the process control sample, prepared from the Reference Standard Batch through the same treatment as the samples excepting PNGase F addition, was different than the potency of the Reference Standard Batch. […] The process control contained more high molecular weight (HMW) forms and less low molecular weight (LMW) forms than the Reference Standard Batch, as measured by size-exclusion ultra-high-performance liquid chromatography (SE-UHPLC).
# [2] = target: T1, IL-22 RA1 ECD; test: potency binding assay (OD against concentration) on plate-coated IL-22 RA1 ECD; lower panel, legend box
# Description: as §1, §2
# [3] = target: T1, IL-22 RA1 ECD; test: potency binding assay (OD against concentration) on plate-coated IL-22 RA1 ECD; Reference Standard Batch given the same incubations as the samples without PNGase F; lower panel, legend box
# Description: as §1, §2
# [4] = target: T1, IL-22 RA1 ECD; test: potency binding assay (OD against concentration) on plate-coated IL-22 RA1 ECD after deglycosylation with PNGase F; lower panel, legend box
# Description: as §1, §2
binder,measurement,setting,value
B1,EC50,[1],0.167 µg/mL
same,EC50,[2],0.162 µg/mL
B2,EC50,[3],0.089 µg/mL
B3,EC50,[4],0.046 µg/mL

# Source: patent US20200362003A1 (Genentech, published 2020)
